The source of these data is the supplement of paper PMC11417369.

The other results are listed elsewhere or left out.

For the test, the system named is PfHDP1 homeodomain (GST-tagged). The test is described as follows: gcPBM binding intensity (ln(normalized median fluorescence intensity)); higher = stronger DNA binding. In short, it runs like this: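 After 1 h on an Agilent 4 × 180k array of primer-extended double-stranded 36-bp intergenic genomic probes and negative controls, bound GST-tagged P. falciparum DNA-binding domains were detected with Alexa488 anti-GST antibody and scanned at 488 nm. The domains had been expressed in E. coli, and binding took place in 1× PBS with 1% milk, 0.2 mg/ml BSA, 0.5% salmon testes DNA and 0.03% Triton X-100. Binding intensity is the highest Masliner-normalised natural-log median intensity across replicate spots of either probe orientation.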
With “GCAGGATTGGTTCAAACACACATATTATATGACTAT [CACACA_site660]”, the “gcPBM binding intensity (ln)” value worked out at 6.76.

On to “TTTTTTTTTTTTTTTGCACACACATAATAGGTACAA [CACACA_site3578]”, for which the “gcPBM binding intensity (ln)” value turned out to be 9.38.

As to “ATCTTATATGATCACACACACACGCACAAAACAGAA [CACACA_site4913]”, the “gcPBM binding intensity (ln)” value is 7.49.

As to “ATACAAAAAGTAAAAAGTACTTAACTAAATATATAA [XGTACX_site2335]”, the “gcPBM binding intensity (ln)” value came out at 6.39.

For “TTTTCAATATATTAATGTACGAATACGCAAATAAGA [XGTACX_site1613]”, the “gcPBM binding intensity (ln)” value worked out at 7.6.

Take “TTAATAAATAAAAATGCACACAGTTAACATGTTGAA [CACACA_site1200]”: the “gcPBM binding intensity (ln)” value stood at 9.16.

On to “GCACATAAATATATGACACACACACCGATTATATAT [CACACA_site9003]”, for which the “gcPBM binding intensity (ln)” value stood at 6.75.

Consider “AAAAAAAAAAAAAAAACACACAAACATCAAATTATT [CACACA_site5083]”, for which the “gcPBM binding intensity (ln)” value was determined as 6.59.

Consider “ATAATAATTTAATACATACACACGTATATCTTTTTT [CACACA_site2041]”, for which the “gcPBM binding intensity (ln)” value is 6.66.

As to “ATTAAAAAAATTAAAAGTACACATATTTCAATGATA [XGTACX_site5606]”, the “gcPBM binding intensity (ln)” value stood at 6.32.

Turning to “TAAGTTATATGTATATGTACTTATATATATATATAT [XGTACX_site5402]”, the “gcPBM binding intensity (ln)” value worked out at 9.31.

Take “AAAATTAAAAAGAACACACAAATATATCTATAATAA [CACACA_site7660]”: the “gcPBM binding intensity (ln)” value is 6.43.

For “TAAAAAAAAAAAAAAACACACATATAAATATATATA [CACACA_site1243]”, the “gcPBM binding intensity (ln)” value is 6.45.

On to “TGTGTTCATCTATGCACACGCATATATATTATTGTT [CACACA_site5985]”, for which the “gcPBM binding intensity (ln)” value is 9.64.

Regarding “TAATCGAAACAAAGAACATGCAAACATATACCTATA [TGCATGCA_site894]”, the “gcPBM binding intensity (ln)” value was found to be 6.3.

Regarding “CAAAATTTATGTAAAAGTACAAAAATATAGAAAGAT [XGTACX_site1122]”, the “gcPBM binding intensity (ln)” value was 6.99.

Regarding “AATATAATATAAGGATCACACACAAACACCCATATA [CACACA_site8084]”, the “gcPBM binding intensity (ln)” value was 7.01.

Regarding “TTTTATTCCTTCTTTGCACACGTTTAAAAATATATA [CACACA_site2899]”, the “gcPBM binding intensity (ln)” value is 10.3.

Take “ATTGCATATAATGGCACACATAAATCCATAATATAT [CACACA_site297]”: the “gcPBM binding intensity (ln)” value worked out at 6.5.

Take “TGTGGTTACATGTGCACACACTTATTTCGTTCTTAT [CACACA_site4907]”: the “gcPBM binding intensity (ln)” value came out at 10.3.

With “TAAATATATATATACACACACATACACAAAAAAAAA [CACACA_site3580]”, the “gcPBM binding intensity (ln)” value was found to be 6.87.

Regarding “TTTATATATATATATATATATAATAAATGATACACA [TGCATGCA_negctrl_site392]”, the “gcPBM binding intensity (ln)” value worked out at 6.89.

For “TATTTTTTTTCTTATACACACCATGCATCAAACTAA [CACACA_site5208]”, the “gcPBM binding intensity (ln)” value turned out to be 7.76.

Consider “TTTGCACCGTTTAAGTGTACAGAATTATGACATATA [XGTACX_site6735]”, for which the “gcPBM binding intensity (ln)” value was 10.3.

Regarding “TCAAAAATATTCTGGAGTACCTTTTTAAAGGTATAG [XGTACX_site6893]”, the “gcPBM binding intensity (ln)” value was determined as 6.09.

“ATGACTCTCAAGTTTGCACACATTTATATTTTTTAA [CACACA_site2605]”: the “gcPBM binding intensity (ln)” value came to 10.5.

In the case of “TATACATACCATAATGCATGTAAGAACAAATAACTG [TGCATGCA_site264]”, the “gcPBM binding intensity (ln)” value amounted to 6.52.

With “AAAAAAAAAAAAAAGGTGCATACTTTGAATTAATAT [GTGCAC_site9401]”, the “gcPBM binding intensity (ln)” value came out at 7.91.

With “AATATAAATAATATATGTACATATATATATATATAT [XGTACX_site1021]”, the “gcPBM binding intensity (ln)” value was 9.2.

Consider “AAAGTATTCTTTACACGTACATATATATAAATATAA [XGTACX_site7557]”, for which the “gcPBM binding intensity (ln)” value is 6.65.

In the case of “AATATAGATATAAAAAGTACATTATATATATATATA [XGTACX_site6899]”, the “gcPBM binding intensity (ln)” value turned out to be 8.95.

With “TTTGTATATATTAATGTACACACATGCGTATGTTCG [CACACA_site9193]”, the “gcPBM binding intensity (ln)” value is 6.71.

As to “AGAATTGTTGTTAAAGAATTCTTTTTTATCCTTCCC [CACACA_negctrl_site1820]”, the “gcPBM binding intensity (ln)” value was found to be 6.45.

Regarding “ATATATATATATGAATCACACACAAAAAATATAGAG [CACACA_site9298]”, the “gcPBM binding intensity (ln)” value was found to be 9.01.

Take “ATAAAATAATGAAAAACACACATTTTTATTTGTATA [CACACA_site3369]”: the “gcPBM binding intensity (ln)” value stood at 6.18.

As to “AAGATTATAAATATATGTACATAAATATATTATATA [XGTACX_site8056]”, the “gcPBM binding intensity (ln)” value came to 6.47.

Regarding “ATTGTTTTTTTTTCTTTGTGGAATGAATGAATATAT [XGTACX_negctrl_site603]”, the “gcPBM binding intensity (ln)” value turned out to be 6.92.

For “AATAACATGTTATATACACACATTATGAAGTCTTCA [CACACA_site746]”, the “gcPBM binding intensity (ln)” value was found to be 6.48.

For the sequence “ATAATACTACCTACATGTACTTATATATAAATGAAT [XGTACX_site3417]”, the “gcPBM binding intensity (ln)” value was 7.09.

For “TTTTTTTTTTCAATGGCACACATTTTAGATTTATGC [CACACA_site1074]”, the “gcPBM binding intensity (ln)” value was determined as 6.18.

As for GTTTTAACAAAATTAGTGCATTTATCAATTATATAA, the “gcPBM binding intensity (ln)” value came to 8.23.

Turning to AAAGAATCAAGAATAGTGCAAATATGTATAACCTTT, the “gcPBM binding intensity (ln)” value came to 9.08.

“ACATCAAGCGGACACACACACACACCGACAGACACA [CACACA_site4361]”: the “gcPBM binding intensity (ln)” value was 6.77.

Regarding “GTATATCATATTTCATGTACACAAAAAAATAAAAAT [XGTACX_site704]”, the “gcPBM binding intensity (ln)” value was 7.06.

Regarding “ACAAAATTTACAAAATGTACAAAATTTACAAAGTAT [XGTACX_site6463]”, the “gcPBM binding intensity (ln)” value amounted to 6.19.

Turning to “ATATATTTGATAAGAGTGCACAAATACATACATACA [GTGCAC_site9704]”, the “gcPBM binding intensity (ln)” value came out at 9.65.

In the case of “TATATATATTATATATGTACATATTATATATATATA [XGTACX_site7300]”, the “gcPBM binding intensity (ln)” value was 8.49.

For the sequence “TATATATATAAACACACACACATATATATATATATA [CACACA_site4584]”, the “gcPBM binding intensity (ln)” value was 9.34.

Consider TTTAAAATACAGAAGGTGCATTTAACATATTTGTAT, for which the “gcPBM binding intensity (ln)” value was 8.79.

As to “AAAAAAAAAAAATGCACACATATATTTCCATATACA [CACACA_site1471]”, the “gcPBM binding intensity (ln)” value worked out at 9.96.

As for “ATATATATATATATATGTACTAATTAATATTTCGAG [XGTACX_site580]”, the “gcPBM binding intensity (ln)” value turned out to be 9.33.

As to “AATATATATTTCTAAGATAAAACCCAAGGATAAAAA [CACACA_negctrl_site735]”, the “gcPBM binding intensity (ln)” value came out at 6.44.

As to “AACATATTTTTTCTTAAACACACACCGATATATATA [CACACA_site8919]”, the “gcPBM binding intensity (ln)” value amounted to 6.92.

“TCTGTAAATATGTATACACACATATCTGATCAATAT [CACACA_site5743]”: the “gcPBM binding intensity (ln)” value came to 6.98.

For “TTTTTTATGATTAACACACACACAAAAAAAAAAAAA [CACACA_site4130]”, the “gcPBM binding intensity (ln)” value is 6.55.

Take “TCATGTAACCATTCATGTACTCAAAAAAAAAAAAAA [XGTACX_site1027]”: the “gcPBM binding intensity (ln)” value was 6.32.

On to “TTTTATATATATATATATATATATATATATGTATAT [CACACA_negctrl_site173]”, for which the “gcPBM binding intensity (ln)” value stood at 7.85.
